According to PubChem BioAssay AID1963576 (National Center for Advancing Translational Sciences (NCATS), 2024):
In all, about 46,000 compounds went through this assay and about 60 (0.1%) were called active. About 3% were inconclusive and are not listed. Calls follow the shape of the dose curve; as a rule, active = well fitted inhibition curve with a large enough effect; inconclusive = small, poorly fitted or top-dose-only effect; inactive = no such curve, though single readings can be large or run the other way. Some of the results follow.

Assay: Primary qHTS assay for Inhibitors of ovarian cancer metastasis using an organotypic tumor microenvironment (TME) model. Also: nearly all actives have a fitted effect of over 65% in size.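 As to activity change, negative = inhibition: plate controls were DMSO wells for no effect and tomatine positive control wells for full effect.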
Settings: SKOV3ip1-GFP adhesion/invasion on 3D omental model, fluorescence; series mostly up to 45.8 µM; activity change, negative = inhibition: at the top concentration
Procedure, shortened: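 A 3D layer of primary human omental fibroblasts, mesothelial cells, fibronectin and collagen I, grown 48 hr, received SKOV3ip1-GFP cells in serum-free medium plus compounds at 0.36-46 umol/L. After 2 hr RT and 16 hr 37 C, fixed adherent GFP cells were counted; normalized to DMSO and tomatine.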

Activity change, negative = inhibition, inactive:
CCc1ccccc1NC(=O)C1=C(C)C(=O)OC12CCCCCC2 -1.21%
COc1cc(CN2CCN(S(=O)(=O)c3ccccc3)CC2)cc(OC)c1O 8.49%
CC[C@]1(O)C[C@H]2CN(CCc3c([nH]c4ccccc34)[C@@](C(=O)OC)(c3cc4c(cc3OC)N(C=O)[C@H]3[C@@](O)(C(=O)OC)[C@H](OC(C)=O)[C@]5(CC)C=CCN6CC[C@]43[C@@H]65)C2)C1 6.28%
COc1cc(NC(=O)CSc2ncc(S(=O)(=O)c3ccc(Br)cc3)c(=O)[nH]2)cc(OC)c1 -4.95%
COc1ccc(CNC(=O)c2cc3c(=O)oc4ccc(C)cc4c3s2)c(OC)c1 -12%
COc1ccc(OC)c(NC(=O)c2cccn2-c2nnc(N3CCCCC3)s2)c1 19.3%
Cc1cccc(NC(=O)C(=O)NCC(c2ccc3c(c2)OCO3)N2CCN(C)CC2)c1C (centres undefined) -7.42%
Cc1cccc(N2CCN(C(=O)CCCCn3c(=O)[nH]c4ccsc4c3=O)CC2)c1C 17.2%
COc1ccc(Cn2c(=O)c3oc4ccccc4c3n(Cc3ccc(F)cc3)c2=O)cc1 -26.6%
CCN(CC)S(=O)(=O)c1ccc2oc(C(=O)N(C)Cc3ccccc3)c(C)c2c1 -9.42%
COc1ccc(C2C=C(c3ccccc3)Nc3nc(NC(=O)/C=C/c4ccccc4)nn32)cc1 (centres undefined) 7.09%
Cn1ccc2c(OCC(=O)Nc3cc(C(F)(F)F)ccc3Cl)cccc2c1=O -22.5%
O=C(NCCCc1ccccc1)C1CCN(C(=O)N2CCOc3ccc(Cl)cc32)CC1 2%
CCN1CCSc2ccc(C(=O)NCc3ccc(OC)cc3)cc21 3.09%
O=C(Cn1ncc2c3ccccc3n(Cc3cccc(Cl)c3)c2c1=O)NC1CCCCCC1 -3.77%
CCN(CC)S(=O)(=O)c1ccc2c(c1)c(=O)c(C(=O)N1CCN(c3ccc(F)cc3)CC1)cn2C -23.3%
CCOc1ccccc1N(CC(=O)N1CCc2ccccc2C1)S(=O)(=O)c1ccccc1 12.9%
O=S(=O)(Nc1cccc(-c2ccc(N3CCCCCC3)nn2)c1)c1cccc(F)c1 -3%
COc1cccc(NC(=O)Cn2c(=O)n(-c3ccc(C)cc3)c(=O)c3ccc(C(=O)NCc4ccco4)cc32)c1 -6.28%
CCOc1ccc2oc(=O)cc(CN3CCN(C(=O)c4ccc(F)cc4)CC3)c2c1 2.12%
CCNC(=O)CC1C(=O)N(c2cccc(OC)c2)C(=O)N1Cc1ccc(OC)c(OC)c1 (centres undefined) -4.31%
O=C1CCSC2(C(=O)N(Cc3ccc(F)cc3)c3ccccc32)N1c1ccc(F)c(F)c1 (centres undefined) -12%
CCc1ccc(-c2nc(CS(=O)CC(=O)NCCc3ccc(Cl)cc3)c(C)o2)cc1 (centres undefined) 4.77%
COc1ccc(CCNC(=O)C(=O)NCC(c2ccco2)S(=O)(=O)c2ccc(F)cc2)cc1 (centres undefined) -22.8%
CCc1cccc(NC(=O)C(c2ccccc2)N2Cc3ccccc3C2=O)c1 (centres undefined) 5.96%
CCC(Sc1nncn2c1cc1oc(C)cc12)C(=O)Nc1ccc(F)cc1 (centres undefined) -9.52%
CCOCc1ccccc1Nc1ncnc2onc(-c3ccc(Cl)cc3)c12 -1.98%
COc1cc(C)c(C)cc1S(=O)(=O)Nc1cccc(-c2ccc(N3CCOCC3)nn2)c1 3.76%
CCC(C)NC(=O)CCc1c(C)nc2nc(-c3cc(OC)cc(OC)c3)nn2c1C (centres undefined) -5.4%
O=C(CSCc1cc(=O)c2cc(F)ccc2[nH]1)Nc1ccccc1Cl 0.969%
COC(=O)c1cc2oc3ccccc3c2n1Cc1nc(-c2ccccc2C)oc1C 3.56%
Cc1ccc2[nH]c(CSc3nnc(NC(=O)c4ccc(Cl)cc4)s3)cc(=O)c2c1 -4.67%
COc1ccc(OC)c(CCNc2nc3ccccc3c3nc(-c4cccnc4)nn23)c1 45.9%
CCCN(C(=O)c1coc(=O)c2ccccc12)c1ccccc1C 0.923%
CCc1ccc(OCC2c3cc(OC)c(OC)cc3CCN2C(=O)COc2ccccc2)cc1 (centres undefined) -5.62%
Cc1ccc(CCNC(=O)C2CCN(Cc3nc(-c4ccccc4C)oc3C)CC2)cc1 -3.76%
CCCN(CCC)C(=O)c1c2c(nc3ccccc13)C(=O)N(C1CCCCC1)C2 -2.98%
Cc1cc(S(=O)(=O)C(CNC(=O)COc2ccc(Cl)cc2)c2cccs2)ccc1F (centres undefined) -0.324%
CCOc1ccc(NC(=O)Cn2cc(C(=O)c3ccco3)c3ccccc32)cc1 6.4%
O=C(Nc1cccnc1Cl)c1cc(-c2cccc(Cl)c2)on1 -8.4%
CCOc1ccc(CCNC(=O)CCc2cn(Cc3ccc(F)cc3)c3ccccc23)cc1 -8.84%
COc1cccc(NC(=O)C(Cc2ccccc2)NS(=O)(=O)c2ccc3c(c2)oc(=O)n3C)c1 (centres undefined) 0.94%
Cc1ccc(N2C(=O)CSC23C(=O)N(CC(=O)Nc2ccc(C(C)C)cc2)c2ccccc23)cc1C (centres undefined) 22.5%
CC(=O)c1cccc(NC(=O)c2noc3c2CCCC3)c1 31.5%
CCc1ccccc1N(C)C(=O)c1cc2c(=O)oc3ccccc3c2s1 0.79%
Cc1ccc(C)c(CN2C(=O)c3ccccc3S(=O)(=O)c3ccc(C(=O)N4CCCCC4)cc32)c1 6.45%
CC(C)n1c(=N)c(C(=O)NCc2ccccc2)cc2c(=O)n3ccccc3nc21 0.336%
COc1ccc(C)cc1NC(=O)N1CCCn2nc(C)cc21 5.11%
CCCCCOC(=O)Nc1nc(=O)n([C@@H]2O[C@H](C)[C@@H](O)C2O)cc1F (some centres undefined) 4.72%
O=C(COc1ccccc1[N+](=O)[O-])N(Cc1ccco1)c1ccccn1 -7.44%
CC(C)CC(=O)Nc1c(C(=O)N2CCN(c3ccccc3)CC2)oc2ccccc12 -5.74%
COC(=O)c1ccccc1NC(=O)N1CCc2c(sc3c2CCCC3)C1c1ccc(F)cc1 (centres undefined) -22.2%
O=C(COc1ccccc1)NC1CC(=O)N(c2ccc3c(c2)OCCO3)C1 (centres undefined) 13.2%
COc1ccc(C2C=C(c3ccccc3)Nc3nc(NS(=O)(=O)c4ccc(Cl)cc4)nn32)cc1 (centres undefined) -13.5%
CC(=O)c1cc2c(cc1N/C(=N/S(=O)(=O)c1ccc(Br)cc1)c1ccccc1)OCO2 2.88%
COc1ccc(OC)c(NC(=O)/C=C/c2ccc(C)o2)c1 -0.469%
CCc1cccc(C)c1NC(=O)c1cccc(C(=O)Nc2c(C)cccc2CC)c1 -8.74%
CCOc1ccc(Nc2nc(-c3c(C)nc4ccccn34)cs2)cc1 12.1%
CCOc1ccc(C(=O)c2cn(CC(=O)Nc3ccc(Cl)cc3)c3cc4c(cc3c2=O)OCCO4)cc1 -0.923%
Cc1ccc(C)c(N2CCN(C(=O)c3noc4c3CCCCC4)CC2)c1 0.916%
Cc1ccccc1Cn1c(CN2CCCC(C)C2)nc2c1c(=O)n(C)c(=O)n2C (centres undefined) 7.22%
Cc1ccc(C)c(N2CCN(C(c3ccccc3)c3nnc(-c4ccccc4F)o3)CC2)c1 (centres undefined) -11%
O=C(CCc1nc(-c2cccs2)no1)Nc1cccc([N+](=O)[O-])c1 9.83%
CCOc1ccc(-c2ccc(NS(=O)(=O)c3ccc(C)cc3)cc2)nn1 -1.07%
COc1ccc(CCCc2nnc(SCC(=O)Nc3ccc(C)cc3)o2)cc1 -3.47%
Cc1ccc(C(=O)Nc2ccc(NC(=O)c3cccs3)cc2)cc1C -1.43%
Cc1c[nH]c(C=C2C(=O)Nc3ccccc32)c1CCC(=O)O -0.521%
Cc1cc(Cl)ccc1NC(=O)C(=O)NCc1ccco1 -5.2%
CCc1cc(C(C)=NOCc2ccc(C3CCCCC3)c(C(F)(F)F)c2)ccc1CN1CC(C(=O)O)C1 -2.64%

outcome, inactive:
Fc1ccc(-c2noc3ncnc(NC4CCCCC4)c23)cc1
COc1ccc(CNC(=O)c2ccc(NC(=O)N3CCCCc4ccccc43)cc2)cc1
COc1cc(C2CC(=O)Nc3cc4c(cc32)OCCO4)cc(Br)c1OC (centres undefined)
CCCCOc1cccc(C(=O)N(Cc2sccc2C)C2CCS(=O)(=O)C2)c1 (centres undefined)
CCOc1ccccc1NC(=O)CCn1nc(C)c(S(=O)(=O)N2CCCCC2)c1C
COC(=O)CCN(c1ccccc1)S(=O)(=O)c1cc(-c2cc(C)no2)ccc1OC
CC(=O)N1CCc2cc(S(=O)(=O)CCC(=O)NCc3ccc(Cl)cc3)ccc21
CCc1ccc(NC(=O)CSC2=Nc3ccccc3C3=NC(CC(=O)NCc4ccccc4)C(=O)N23)cc1 (centres undefined)
Cc1nc2ncnn2c(C)c1CCC(=O)NCc1ccccc1Cl
Cc1c(C(=O)Nc2cccc(Cl)c2)oc2ccc(S(=O)(=O)N(C)C3CCCCC3)cc12
CS(=O)(=O)N1CCC(N2CCN(Cc3ccccc3)C(=O)C2=O)CC1
COCCn1c(=N)c(C(=O)NC(C)c2ccccc2)cc2c(=O)n3cc(C)ccc3nc21 (centres undefined)
Cc1ccc(NC(=O)[C@@H](c2ccccc2)N2Cc3ccccc3C2=O)cc1
CCc1ccccc1NC(=O)CSc1nnc2ccc3ccccc3n12
Cc1cccc(N2CCN(S(=O)(=O)c3cc(C(=O)Nc4ccccc4Cl)ccc3F)CC2)c1C
Brc1ccc(-n2nc(-c3ccccc3)c3cnc4cc5c(cc4c32)OCO5)cc1
CCn1c(=O)cc(OCC(=O)Nc2cc(Cl)c(OC)cc2OC)c2ccccc21
CCOc1ccc(CCNC(=O)c2cc3c(-c4ccc(OC)c(OC)c4)nn(C)c3s2)cc1OCC
COc1ccc(-n2nc(C(=O)Nc3cccc(C)n3)c3c4ccccc4n(C)c3c2=O)cc1Cl
Cc1coc2cc3oc(=O)c(CC(=O)NCCc4ccccc4)c(C)c3cc12
COc1ccc(OC)c(NC(=O)c2cnn(-c3ccc(C)cc3)c2C2CCNCC2)c1
COc1cc(NC(=O)c2cc(S(=O)(=O)N3CCc4ccccc43)cn2C)cc(OC)c1OC
O=C(C1CCC1)N1CCc2cc(S(=O)(=O)NCc3ccc(F)cc3)ccc21
O=C(Cn1c(=O)n(CC2CCC(C(=O)NCCc3ccccc3)CC2)c(=O)c2ccccc21)Nc1cccc(F)c1 (centres undefined)
COc1ccc(C(=O)Cn2c(=O)c(-c3cc(C)ccc3NC(C)=O)nc3ccccc32)cc1
